# Measured values reported in PubChem BioAssay AID651820 (National Center for Advancing Translational Sciences (NCATS), 2012).
# Hit rate of the full screen: of about 340,000 compounds, about 12,000 (3.5%) were called active. The inconclusive results got no clear call from the source; some entries with a clear call stand among them for comparison. Calls follow the shape of the dose curve; as a rule, active = well fitted inhibition curve with a large enough effect; inconclusive = small, poorly fitted or top-dose-only effect, or another doubt; inactive = no such curve, though single readings can be large or run the other way. No potency is given beside an inconclusive call; the fits are too rough.
# Assay: qHTS Assay for Inhibitors of Hepatitis C Virus (HCV)
# Details: Huh7.5.1 HCVcc-Cre (HCVcc is cell-culture hepatitis C virus) infection, luciferase reporter, 44 h; series mostly up to 41.8 µM
# Outline: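 Cells seeded at 1,000/well and cultured 4 h, then compounds added followed by HCVcc-Cre virus (~0.5 moi). After 44 h further culture, luciferase substrate was added, plates held 15 min at room temperature, and luminescence read for 15 sec.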
# Potency is read from the fitted curve at half-maximal effect; tags tell the direction and shape of the fitted curve.
row,Structure (SMILES),Potency
1,O=C(CCc1ccccc1)c1nnc(-c2ccccc2)o1,inactive
2,c1ccc(-c2nc(-c3ccco3)n3ccccc23)cc1,"inconclusive [inhibitor, single point]"
3,Cc1cc(C(=O)CN2C(=O)NC(C)(c3cccc(Br)c3)C2=O)c(C)n1Cc1ccco1 (stereo not given),"inconclusive [inhibitor, single point]"
4,CN=C1SC(CC(=O)Nc2cccc(C(F)(F)F)c2)C(=O)N1C (stereo not given),"inconclusive [inhibitor, partial curve]"
5,CCCC(C(=O)NC1CCCC1)N(C(=O)Cn1nnc(-c2ccc(C)o2)n1)c1ccccc1OC (stereo not given),"inconclusive [inhibitor, partial curve]"
6,S=C(NCCc1ccccc1)NN=C1CCCCCC1,inactive
7,CCCOc1ccccc1OCC(=O)Nc1cc(Cl)ccc1-n1cncn1,"inconclusive [inhibitor, full curve]"
8,Cc1cc(-c2n[nH]c(=S)n2/N=C/C(Br)=C/c2ccccc2)n[nH]1,"inconclusive [inhibitor, single point]"
9,c1ccc2nc(-c3nc4ccccc4[nH]3)ccc2c1,inactive
10,CCC(C)(C)n1nnnc1C(c1ccc(N(C)C)cc1)N1CCN(C2CCCCC2)CC1 (stereo not given),inactive
11,COc1ccc(OC)c(/C=N/Nc2cc(C)nc(N3CCOCC3)n2)c1,"inconclusive [inhibitor, partial curve]"
12,COc1ccc(-n2c(C)c(C(C)=O)c3cc(OC(C)=O)ccc32)cc1,"inconclusive [inhibitor, single point]"
13,COc1ccc(CC(=O)Nc2cccc(-c3csc(C)n3)c2)cc1,"inconclusive [inhibitor, single point]"
14,CCSc1nc2c(c(=O)[nH]c(=O)n2C)n1CC(O)COc1ccccc1C (stereo not given),"inconclusive [inhibitor, single point]"
15,COc1ccccc1C=NNC(=O)c1ccccc1OCCOc1ccccc1,"inconclusive [inhibitor, single point]"
16,COc1ccc(N(CC(=O)N/N=C/c2cc(Br)c(C)o2)S(=O)(=O)c2ccc(NC(C)=O)cc2)cc1,"inconclusive [inhibitor, single point]"
17,O=S(=O)(NC1CCCC1)c1ccc(S(=O)(=O)N2CCCN(Cc3ccccc3)C2)cc1,"inconclusive [inhibitor, single point]"
18,O=C(O)CC(NNC(=O)c1ccccc1)C(=O)Nc1cccc([N+](=O)[O-])c1 (stereo not given),inactive
19,OCCCc1nc2ccccc2n1CCCCOc1ccccc1,inactive
20,O=C(CCN1CCN(CCO)CC1)N1c2ccccc2Sc2ccc(C(F)(F)F)cc21,active: 12.6 µM
21,COc1ccc(CN2CC(COCc3ccccc3)Oc3ccccc3S2(=O)=O)cc1 (stereo not given),"inconclusive [inhibitor, partial curve]"
22,O=C1Cc2cc(NS(=O)(=O)c3ccc(Cl)cc3)cc3c2N1CCC3,inactive
23,C=CCn1c(C)c(/C=C/c2cc[n+](C)cc2)c2ccccc21,"inconclusive [inhibitor, partial curve]"
24,NCCc1nnc(SCc2ccc(F)cc2)o1,"inconclusive [inhibitor, full curve]"

row,Structure (SMILES),Potency
1,CC(C)NCCCCOc1cccc(Br)c1,"inconclusive [inhibitor, single point]"
2,COc1cccc(N=Nc2ccc3ccccc3c2O)c1,inactive
3,N#Cc1nc(N2CCOCC2)nc(N2CCOCC2)n1,"inconclusive [inhibitor, partial curve]"
4,CC(=O)c1ccc(OCc2ccc(Oc3c(Cl)cccc3[N+](=O)[O-])cc2)cc1,"inconclusive [inhibitor, single point]"
5,Cn1c(=O)c2c(nc(CN3CCN(CCO)CC3)n2Cc2cccc3ccccc23)n(C)c1=O,"inconclusive [inhibitor, single point]"
6,COc1ccccc1/C=C1\SC(=S)N(CCC(=O)N2CCCCC2CCO)C1=O (stereo not given),"inconclusive [inhibitor, single point]"
7,O=C(NCC1CCCO1)c1ccc(F)c2ccccc12 (stereo not given),inactive
8,CCOC(=O)C1(CCOc2ccccc2)CCN(C(=O)CCSC)CC1,inactive
9,CCc1ccc(CCC(=O)Nc2sc3c(c2C#N)CCCC3)o1,active: 4.47 µM
10,Cc1cc(C)nc(NC(=O)c2ccc(COc3ccccc3Cl)cc2)c1,"inconclusive [inhibitor, partial curve]"
11,Cc1ccc(/C=C2\SC(=S)N(CCC(=O)NCCCN3CCOCC3)C2=O)cc1,"inconclusive [inhibitor, partial curve]"
12,COc1ccc(OC)c(NC(=O)C(Sc2ccccc2)c2ccccc2)c1 (stereo not given),"inconclusive [inhibitor, partial curve]"
13,CC(NC(=O)c1cccc(N2CCCC2=O)c1)c1ccc2c(c1)OCCO2 (stereo not given),inactive
14,COc1ccc(CCNC(=O)C2CCCN(S(=O)(=O)c3ccccc3)C2)cc1 (stereo not given),"inconclusive [inhibitor, partial curve]"
15,O=C(Nc1ncnc2c1ncn2C1OC(COC(=O)c2ccccc2)C(F)C1O)c1ccccc1 (stereo not given),"inconclusive [inhibitor, single point]"
16,Cc1ccc(-c2nc(C(=O)NCCCN(C)C)cc3c2[nH]c2ccccc23)cc1,active: 11.2 µM
17,CC(C)Nc1nc(NC2CCCC2)nc(N2CCOCC2)n1,"inconclusive [inhibitor, single point]"
18,Cc1cccc(NC(=O)c2cccc(S(=O)(=O)N(C)c3ccccc3)c2)n1,"inconclusive [inhibitor, partial curve]"
19,Cn1nc(-c2ccc(N3CCOCC3)c(NS(=O)(=O)c3ccccc3)c2)c2ccccc2c1=O,inactive
20,O=C(NC(=S)Nc1cc(-c2nc3ccccc3[nH]2)ccc1Cl)c1ccc2c(c1)OCO2,"inconclusive [inhibitor, partial curve]"
21,Cc1ccccc1/C(N)=N/OC(=O)/C=C/c1ccccc1,"inconclusive [inhibitor, partial curve]"
22,O=C1NC[C@@H](c2ccccc2)OC(=O)[C@H](Cc2ccc(F)cc2)C/C=C\C[C@@H]1CC(=O)N(CCO)Cc1ccccc1,"inconclusive [inhibitor, partial curve]"
23,CCCNC(=O)c1ccc2c(=O)c(O)c(-c3ccc(Cl)c([N+](=O)[O-])c3)[nH]c2c1,active: 5.01 µM
24,Cc1cnc(C(=O)N2CCN(S(=O)(=O)c3cc(C(F)(F)F)cc(C(F)(F)F)c3)CC2)cn1,inactive

row,Structure (SMILES),Potency
1,C[C@H](NC(=O)c1nc[nH]c1C(=O)N[C@H](C)c1ccccc1)C(=O)OC(C)(C)C,active: 12.6 µM
2,Cc1ccn2c(Nc3ccccc3C)c(-c3ccccn3)nc2c1,active: 3.98 µM
3,O=C(Nc1nccs1)C(Br)C(Br)c1ccccc1 (stereo not given),inactive
4,O=[N+]([O-])c1ccccc1S(=O)(=O)c1ccccc1[N+](=O)[O-],inactive
5,Cc1ccc(C(=O)N(C)c2nnc(-c3ccncc3)s2)cc1,"inconclusive [inhibitor, single point]"
6,CC(C)=CCc1c(O)cc2c(c1O)C(=O)CC(c1ccc(O)cc1)O2 (stereo not given),"inconclusive [inhibitor, single point]"
7,COc1ccc(-n2c(Cc3cccn3C)nnc2SCC(=O)Nc2ccc(C)cc2C)cc1,"inconclusive [inhibitor, partial curve, poor fit]"
8,CN(c1ccccc1)c1nc(N2CCCC2)nc(-n2ccnc2)n1,"inconclusive [inhibitor, full curve]"
9,Cc1ccc2nc(/C(C#N)=C\c3ccc(Oc4ccc([N+](=O)[O-])cn4)cc3)[nH]c2c1,"inconclusive [inhibitor, full curve, poor fit]"
10,C/C(=N\Nc1ccccc1Cl)c1ccc(-n2ccnc2)cc1,"inconclusive [inhibitor, single point]"
11,CS(=O)(=O)N(CC(=O)NCc1ccccc1Cl)c1cccc([N+](=O)[O-])c1,inactive
12,O=S(=O)(c1ccc(OC(F)(F)F)cc1)N1CCCC(N2CCOCC2)C1 (stereo not given),"inconclusive [inhibitor, partial curve]"
13,O=C(c1n[nH]c(=O)c2ccccc12)N1CCN(C2c3ccccc3-c3ccccc32)CC1,"inconclusive [inhibitor, single point]"
14,COc1ccc(-n2c(C)cc(C(=O)CCl)c2C)cc1,"inconclusive [inhibitor, single point]"
15,COc1cc(-c2noc(C)c2C(=O)NCCc2c[nH]c3ccccc23)cc(OC)c1OC,"inconclusive [inhibitor, single point]"
16,COc1ccc(/C=C/C(=O)Nc2cc(C(F)(F)F)ccc2Cl)cc1OC,"inconclusive [inhibitor, full curve, poor fit]"
17,O=C(COc1ccc2ccccc2c1Br)N1CCCC1,inactive
18,COc1ccc(NC(=S)NCCc2c[nH]c3ccccc23)cc1,inactive
19,Cc1ccc(S(=O)(=O)N2CCN(CC(=O)N/N=C/c3ccc(Br)s3)CC2)cc1,"inconclusive [inhibitor, single point]"
20,Cc1cc(N2CCCCC2)nc2ccc(NC(=O)c3ccc(Br)o3)cc12,active: 3.98 µM
21,Cc1ccc(-c2c[nH]c(=S)n2-c2ccccc2)cc1,inactive
22,O=C(NCCc1csc(-c2ccccc2)n1)c1ccc(Br)o1,"inconclusive [inhibitor, single point]"
